PubChem BioAssay AID686979 (National Center for Advancing Translational Sciences (NCATS), 2013)
Values joined by “and” are separate entries in the source; they are usually repeats but may differ in a detail not shown here. Identical values can stand only once. The whole screen tested about 420,000 compounds, of which about 50,000 (12%) were called active. The shares of active, inactive and inconclusive entries below differ from those in the screen. Calls follow the shape of the dose curve; as a rule, active = well fitted inhibition curve with a large enough effect; inconclusive = small, poorly fitted or top-dose-only effect; inactive = flat fitted curve, though single readings scatter. Where the call is inconclusive, the potency comes from a doubtful curve fit. The source holds several records for some structures; these can differ, active in one and inactive in another.

Assay: qHTS for Inhibitors of human tyrosyl-DNA phosphodiesterase 1 (TDP1): qHTS in cells in presence of CPT; also: nearly all actives have a fitted effect of over 55% in size
Conditions: chicken DT40 Tdp1-/-;hTDP1 cells + 20 nM CPT, ATP luminescence, 48 h; activity change, negative = growth inhibition: at 46.2 µM (top of the series) unless noted
Procedure, shortened: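 Chicken DT40 Tdp1-/- cells stably complemented with human TDP1 were seeded at 400 cells/well in medium containing 20 nM camptothecin, exposed to pin-transferred compounds, and grown at 37 °C for at least 48 hr. Viability was read as ATP luminescence.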
% is scaled to controls: 0 for no effect and ±100 for the full control effect; potency is read from the fitted curve at half-maximal effect; tags tell the direction and shape of the fitted curve.

SMILES	activity change, negative = growth inhibition	Potency
Cc1ccc(C(=O)C2CN3CCC2CC3)cc1 (centres undefined)	inactive: -25.1%	
NC(=S)/N=C/c1c(O)[nH]c(=O)[nH]c1=O	inactive: 11.4%	
CCN(CC)Cc1c[nH]c2ccccc12		active: 10.3 µM
O=C1NC(=O)N(c2ccc(Cl)cc2)C(=O)/C1=C\c1ccc(Sc2nc3ccccc3[nH]2)o1		active: 16.4 µM
Cc1ccc(C)c(N2CCN(C(=O)C3CCN(Cc4nc(-c5cccc(Cl)c5)oc4C)CC3)CC2)c1		active: 9.2 µM
O=C(O)C1C2c3ccccc3C(=O)C1(C(=O)O)c1ccccc12 (centres undefined)	inactive: 8.48%	
CCOC(=O)C1(CCOc2ccccc2)CCN(Cc2ccc(C)s2)CC1		inconclusive: 20.6 µM [inhibitor, single point]
CC(=O)OC1(C)CC(C)C(=O)C(C(O)CC2CC(=O)NC(=O)C2)C1 (centres undefined)		active: 0.184 µM
CC1C2Cn3c(nc4ccccc43)C1N(C)O2 (centres undefined)	inactive: -1.39%	
O=C1NC(=O)C(=Cc2ccc(-c3cc(Cl)ccc3[N+](=O)[O-])o2)C(=O)N1		active: 16.4 µM
CC[C@@]1(O)C(=O)OCc2c1cc1n(c2=O)Cc2cc3ccccc3nc2-1		active: 33.5 nM and active: 18.4 nM and active: 79.4 nM
CCCC(=O)NC(Oc1ccc(Cl)cc1Cl)C(Cl)(Cl)Cl (centres undefined)	inactive: -4.22%	
c1ccc(CCN2CCC(N3CCN(c4ccccc4)CC3)CC2)cc1	inactive: 1.73%	
Cc1c(CCNS(=O)(=O)c2ccccc2)sc2nc(-c3ccc(Cl)cc3)nn12		active: 7.31 µM
CC(C)c1ccc(O)c(CN2CCN(c3ccccc3)CC2)c1		inconclusive: 25.9 µM [inhibitor, single point]
COC(=O)C1=C(c2ccc(-c3ccccc3)c(F)c2)C[C@@H]2CC[C@H]1N2C(=O)NCCO		inconclusive: 29.1 µM [inhibitor, single point]
CN(C)[C@@H]1C(=O)C(C(N)=O)=C(O)[C@@]2(O)C(=O)C3=C(O)c4c(O)ccc(Cl)c4[C@@](C)(O)[C@H]3C[C@@H]12		active: 14.6 µM
O=c1c2ccccc2nc(Cc2cccc([N+](=O)[O-])c2)n1-c1ccc(O)cc1		inconclusive: 18.4 µM [inhibitor, single point]
COc1ccc(/C=N\N=C(N)N)cc1		inconclusive: 23.1 µM [inhibitor, partial curve]
CC1CCCCC1NC(=O)CNC(=S)N1CC2CC(C1)c1cccc(=O)n1C2 (centres undefined)	inactive: 16.4%	
COc1cccc(C(c2nnnn2-c2c(C)cccc2C)N2CCC(n3c(=O)[nH]c4ccccc43)CC2)c1OC (centres undefined)		active: 5.8 µM
CCOc1ccccc1N1CCN(Cc2cccc(OC)c2OC)CC1		inconclusive: 18.4 µM [inhibitor, single point]
c1coc(CNCCc2c[nH]c3ccccc23)c1	inactive: 5.26%	
O=C1c2ccccc2C(=O)c2c1ccc1c(=O)n(-c3ccccc3)[nH]c21		inconclusive: 18.4 µM [inhibitor, single point]
O=C(COc1ccc2ccc(=O)oc2c1)N1C[C@H]2C[C@@H](C1)c1cccc(=O)n1C2	inactive: -0.544%	

SMILES	activity change, negative = growth inhibition	Potency
CCCCCCCCN1C(=O)[C@H](CC(=O)NCCc2ccccc2OC)C[C@@]2(C(=O)OC)CCCCC=C12		inconclusive: 29.1 µM [inhibitor, single point]
Cc1ccc(NP(=O)(c2ccccc2)c2nc3ccccc3s2)cc1 (centres undefined)		inconclusive: 23.1 µM [inhibitor, partial curve]
Clc1ccc(CSC(Cn2ccnc2)c2ccc(Cl)cc2Cl)cc1 (centres undefined)		inconclusive: 12.8 µM [inhibitor, single point] and inconclusive: 29.1 µM [inhibitor, single point] and inconclusive: 18.4 µM [inhibitor, single point]
CC(C)[C@H](CN(N=O)[C@@H](Cc1ccccc1)CN(C)N=O)N(CCc1ccccc1)N=O		active: 23.1 µM
Cc1n[nH]c(C)c1CCN		inconclusive: 29.1 µM [inhibitor, single point]
O=C(NCCc1ccc(Cl)cc1)C(=O)NCC(c1cccs1)S(=O)(=O)c1cccs1 (centres undefined)		inconclusive: 20.6 µM [inhibitor, single point]
CCOc1ccc(-c2nc(CSCC(=O)NCCc3ccc(OCC)c(OCC)c3)c(C)o2)cc1		active: 14.6 µM
CCCNC(=O)C1(C)CCN(Cc2ccc3ccccc3c2Br)C1 (centres undefined)		inconclusive: 29.1 µM [inhibitor, single point]
CC(C)CCn1c(N)c(C(=O)NCc2cccs2)c2nc3ccccc3nc21		inconclusive: 29.1 µM [inhibitor, single point]
C=CCN1C(=O)/C(=C/c2cc(C)n(-c3cccnc3)c2C)C(=O)NC1=S		inconclusive: 20.6 µM [inhibitor, single point]
CCOP(=O)(OCC)C(NC(=O)C(C)C)C(Cl)(Cl)Cl (centres undefined)	inactive: -8.32%	
CN(C)C(=S)SC(=S)N(C)C		active: 0.841 µM
CCOC(=O)c1c(C)n(Cc2ccccc2)c2ccc(OCC(O)Cn3nc(C)cc3C)cc12 (centres undefined)		inconclusive: 29.1 µM [inhibitor, single point]
C=CCn1c(O)c(C(C)=Nc2cccc(C(F)(F)F)c2)c(=O)[nH]c1=O	inactive: -0.0103%	
CCCCCn1c(=O)c(C(=O)Nc2ccccc2S(N)(=O)=O)c(O)c2ccccc21		active: 6.51 µM
Oc1ccc2c3c1OC1[C@H](O)CC[C@@]4(O)[C@@H](C2)N(CC2CC2)CC[C@]314 (some centres undefined)		inactive
CN1c2ccccc2C(NCCCCCCC(=O)O)c2ccc(Cl)cc2S1(=O)=O (centres undefined)	inactive: 6.39%	
CC(C)Oc1cc(-n2c(=S)[nH]c3ccccc3c2=O)c(Cl)cc1Cl		inconclusive: 29.1 µM [inhibitor, single point]
CCN(CC)C(=O)c1ccc(NC(=O)c2cccc(S(=O)(=O)N3CCN(Cc4ccccc4)CC3)c2)cc1		active: 18.4 µM
COC(=O)C1=C(c2cc3ccccc3o2)C[C@@H]2CC[C@H]1N2C(=O)NCc1ccccc1		inconclusive: 23.1 µM [inhibitor, single point]
COc1ccc2[nH]cc(CCNCc3ccc(Br)cc3)c2c1		active: 13 µM
CN1CCN(c2ccc([N+](=O)[O-])c3no[n+]([O-])c23)CC1		active: 0.184 µM
CCC(C)C1NC(=O)C(NC(=O)C(CC(C)C)N(C)C(=O)C2CCCN2C(=O)C(C)O)C(C)OC(=O)C(Cc2ccc(OC)cc2)N(C)C(=O)C2CCCN2C(=O)C(CC(C)C)NC(=O)[C@H](C)C(=O)[C@H](C(C)C)OC(=O)CC1O (some centres undefined)		active: 0.0366 µM
O=[N+]([O-])c1cccc(CCl)c1		inconclusive: 23.1 µM [inhibitor, single point]
O=C(N/N=C/c1c(O)n(Cc2ccco2)c(=O)[nH]c1=O)c1ccccc1O	inactive: 3.64%	

SMILES	activity change, negative = growth inhibition	Potency
c1cnc(N2CCNCC2)nc1	inactive: -6.63%	
COc1ccc(CCNC(=O)N2c3ccccc3Sc3ccccc32)cc1		inconclusive: 29.1 µM [inhibitor, single point]
COC(=O)C1=C(c2ccccc2)C[C@@H]2CC[C@H]1N2C(=O)N1CCOCC1		inconclusive: 18.4 µM [inhibitor, single point]
COCCNC(=O)Cn1cc(/C=C2\C(=O)NC(=O)N(c3ccccc3F)C2=O)c2ccccc21	inactive: -18.9%	
Cc1sc(-n2c(C)cc(C=C3C(=O)NC(=O)NC3=O)c2C)c(C#N)c1C		inconclusive: 0.517 µM [inhibitor, partial curve, poor fit]
COc1ccc(OCC(=O)N2CCN(Cc3nc4cc([N+](=O)[O-])ccc4n3C)CC2)cc1		active: 14.6 µM
O=[N+]([O-])c1cc(F)c(N2CCCCCC2)cc1N1CCNCC1		active: 16.4 µM
C[n+]1ccc(-c2ccccc2)c2ccccc21		active: 2.31 µM
COc1ccc(OCC(=O)N2CCN(Cc3cccc(OC)c3OC)CC2)cc1		inconclusive: 29.1 µM [inhibitor, single point]
CN1CCN(c2ncnc3ccc(Br)cc23)CC1		active: 25.9 µM
CCC(C)/C=C(C)/C=C/C1=CC2=C(Cl)C(=O)C(C)(OC(C)=O)C(=O)C2=CO1 (centres undefined)		active: 14.6 µM
Cc1ccc(-c2nc3ccccc3c(=O)n2-c2nccs2)cc1	inactive: -23%	
CCOP(=O)(OCC)c1nc(-c2cccc3ccccc23)oc1N1CCCCC1		active: 20.6 µM
CC12CCC3C(CCC4(O)CC(O)CCC34C=O)C1(O)CCC2C1=CC(=O)OC1 (centres undefined)		active: 10.3 µM
CC(C)n1nnnc1CN1CCN(C)CC1	inactive: -0.171%	
C#C[C@]1(O)CC[C@H]2[C@@H]3CCC4=Cc5nc6nc7ccccc7n6cc5C[C@]4(C)[C@H]3CC[C@@]21C		inconclusive: 23.1 µM [inhibitor, single point]
NNc1ccccc1	inactive: -12.8%	
O=S(=O)(c1ccccc1)N1CN2CCN(C2)C1		inconclusive: 29.1 µM [inhibitor, single point]
Cc1ccc(NC(=O)c2cnc3sc(N4CCOCC4)nn3c2=O)cc1N(C)C		active: 14.6 µM
CCC(c1nnnn1-c1ccc2c(c1)OCCO2)N1CCC2(CC1)C(=O)NCN2c1ccccc1 (centres undefined)		active: 18.4 µM
Cc1cc(C)cc(OCC(=O)Nc2ccc(Cl)cc2C(=O)c2ccccc2)c1	inactive: -5.44%	
CC(C)CN1CCN(Cc2ccc(C(F)(F)F)cc2)CC1CCO (centres undefined)		inconclusive: 32.6 µM [inhibitor, single point]
COC(=O)C1=C(c2cc3ccccc3o2)C[C@@H]2CC[C@H]1N2C(=O)NCc1cccc2ccccc12		inconclusive: 23.1 µM [inhibitor, single point]
NCCc1cc(O)c(O)cc1O		active: 5.8 µM and active: 5.17 µM
